Measurements published in PubChem BioAssay AID1508624 (National Center for Advancing Translational Sciences (NCATS), 2021).
In all, about 48,000 compounds went through this assay and about 120 (0.25%) were called active. Not shown: some 4% with an inconclusive outcome. Calls follow the shape of the dose curve; as a rule, active = well fitted activation curve with a large enough effect; inconclusive = small, poorly fitted or top-dose-only effect, or another doubt; inactive = no such curve, though single readings can be large or run the other way. Some of the results follow.

Assay: Primary qHTS for Identification of Small Molecule Activators of Huntingtin-Antisense Promoter Activity; also: nearly all actives have a fitted effect of over 55% in size
Conditions: HEK293 HTT-AS promoter firefly luciferase reporter (activity 0% = vehicle and -100% = no light), 24 h; series mostly up to 57.5 µM; activity change, positive = activation: at the top concentration
How it was run: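 Luminescence was read after Dual-Glo reagent and a 10 min room-temperature incubation. Values were normalized to vehicle (0% activity) and zero RLU (-100% activity). Reporter HEK293 cells had been exposed to compounds (up to 57.5 uM final) for 24 h.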

Activity change, positive = activation, inactive:
Cc1ccc(NC(=O)Cn2c(=O)n(Cc3ccc(F)cc3)c(=O)c3cccnc32)cc1C -3.36%
CCCn1ccc2c(OCC(=O)Nc3ccccc3C(=O)OCC)cccc2c1=O -36.5%
O=C(CCCCn1c(=O)c2ccccc2n(Cc2ccc(F)cc2Cl)c1=O)NCCc1ccc(Cl)cc1 -35%
COC(=O)c1ccccc1NC(=O)CCCn1c(C)c2cnn(-c3ccccc3)c(=O)c2c1C -3.24%
CC(=O)c1ccc(NC(=O)C2CCN(S(=O)(=O)c3c(C)noc3/C=C/c3ccc(C)cc3)CC2)cc1 -30.6%
COc1ccc(CNC(=O)CN2C(=O)COc3ccccc32)c(OC)c1 17.4%
Cc1ccc2nc(NC(=O)CSc3cc(C)[nH]c(=O)n3)sc2c1 19.7%
Oc1ccccc1-c1nc2cnccn2c1Nc1ccc(Cl)cc1 -34.3%
Nc1nccc(Oc2ccc(NC(=O)c3c[nH]cc(-c4ccc(F)cc4)c3=O)cc2F)c1Cl -40.5%
COc1ccc(-c2nn3c(-c4ccccc4)nnc3c3ccccc23)cc1 7.47%
CCOc1ccc(C(=O)N2CCc3cc(OC)c(OC)cc3C2COc2ccc3c(C)cc(=O)oc3c2)cc1OCC (stereo not drawn) -10.7%
CCOc1ccc(CNC(=O)CCCn2c(=O)c3cccn3c3cccnc32)cc1 -7.21%
Cc1cccc(N2CCN(C(=O)Cn3c(C)c4cnn(-c5ccccc5)c(=O)c4c3C)CC2)c1C -49%
CCCCn1c(SCc2ccccc2C)nc2ccsc2c1=O -2.91%
COc1ccc(CNC(=O)C(=O)NCC(c2ccco2)S(=O)(=O)c2cccs2)cc1 (stereo not drawn) -1.57%
Cc1nnc(SCc2cc(=O)c3cc(F)ccc3[nH]2)n1C -4.43%
Cc1ccc(NS(=O)(=O)c2ccc3c(c2)CCN3C(=O)C2CC2)c(C)c1 -26.1%
Cc1ccc(NC(=O)c2ccc3c(O)c(S(=O)(=O)c4ccc(Cl)cc4)c(=O)[nH]c3c2)cc1 -2.53%
CCOC(=O)C1CCCN(C(=O)Cn2ncc3c(C)n(Cc4ccc(Cl)cc4)c(C)c3c2=O)C1 (stereo not drawn) -24%
C=C(C)Cn1c(SCC(=O)c2ccc(Br)cc2)nc2sc3c(c2c1=O)CCCC3 -4.26%
CC1=C(C#N)C(NC(=O)c2ccccc2)(C(F)(F)F)C(=O)N1 (stereo not drawn) -11.6%
Cc1ccc(S(=O)(=O)c2nc(-c3cccs3)oc2SCc2ccc(F)cc2)cc1 -4.28%
CC(C)c1ccccc1NC(=O)C(Cc1c[nH]c2ccccc12)NC(=O)OC(C)(C)C (stereo not drawn) -24.8%
COc1ccccc1CNC(=O)Cc1c(C)c2cc3c(C)coc3c(C)c2oc1=O -6.95%
CCOC(=O)c1ccc(Nc2c(-c3ccc(OC)cc3)nc3nc[nH]n23)cc1 -45.6%
CCOc1ccc(CCNC(=O)C2Cc3ccccc3N2C(=O)CC)cc1 (stereo not drawn) -5.5%
Cc1ccccc1Cn1c(=O)n(Cc2ccco2)c(=O)c2sc3ccccc3c21 -19.4%
COc1ccc(CNC(=O)CC(C)CC2=NS(=O)(=O)c3ccccc3N2)cc1 (stereo not drawn) -22.9%
CCOc1ccc(S(=O)(=O)Nc2ccc3c(c2)CCCN3C(=O)c2cccs2)cc1 -22%
CCC(=O)N1CCc2cc(CNC(=O)Nc3cc(OC)c(OC)c(OC)c3)ccc21 -5.53%
CCN(CC)C(=O)C1=C(C)Nc2nc3ccccc3n2C1c1ccccc1F (stereo not drawn) -6.42%
CCOC(=O)c1cc2c(=O)n3ccccc3nc2n(CCCOC)c1=NC(=O)c1c(-c2c(F)cccc2Cl)noc1C -29.9%
O=C(Cc1ccc(NC(=O)N2CCCCc3ccccc32)cc1)NCc1cccc(Br)c1 -9.05%
COc1ccc(Cl)cc1NC(=O)Cn1c(=O)n(-c2ccc(C)cc2)c(=O)c2ccc(C(=O)NCc3ccccc3Cl)cc21 -25.1%
CSc1ccc(-c2nc3cccc(C)n3c2Nc2ccc3c(c2)OCO3)cc1 4.89%
COc1ccc(-c2nnc(SC(C)C(=O)O)o2)cc1 (stereo not drawn) -11.9%
O=C(CN1C(=O)CSc2ccc(S(=O)(=O)N3CCCC3)cc21)NCc1ccccc1Cl -21.2%
CC(=O)N1CCCc2cc(S(=O)(=O)N3CCCC(C(=O)NC(C)C)C3)ccc21 (stereo not drawn) -20.2%
Cc1ccc(OCC(=O)Nc2c(C(=O)c3ccc(Cl)cc3)oc3ccccc23)cc1C -11.7%
CCCCNC(=O)CCc1c(C)nc2cc(-c3ccccc3)nn2c1C -69.6%
COc1ccc(N2C(=O)C(CC(=O)Nc3ccccc3)N(CCC3=CCCCC3)C2=O)cc1 (stereo not drawn) -13.2%
Cc1[nH]c2ccccc2c1C1(O)C(=O)N(Cc2ccccc2)c2ccc(Cl)cc21 (stereo not drawn) -23.1%
Cc1cc(-c2ccc(S(=O)(=O)Nc3ccc(Cl)cc3)cc2)on1 -32.2%
CCOc1ccc(C2c3c(oc4ccc(C)cc4c3=O)C(=O)N2CCCN(C)C)cc1OC (stereo not drawn) -2.42%
CO[C@H]1C=CO[C@@]2(C)Oc3c(C)c(O)c4c(O)c(c(/C=N/N5CCN(C)CC5)c(O)c4c3C2=O)NC(=O)/C(C)=C\C=C[C@H](C)[C@H](O)[C@@H](C)[C@@H](O)[C@@H](C)[C@H](OC(C)=O)[C@@H]1C -2.28%
CC(C)Oc1ccc(CNC(=O)c2sc3ncccc3c2-n2cccc2)cc1 -26%
COc1ccc(-n2nc(C(=O)Nc3ccc(C(C)=O)cc3)nc2-c2ccccc2)cc1 -13.6%
CCc1ccc2occ(CC(=O)Nc3ccc(OC)c(Cl)c3)c2c1 -3.67%
Cc1nc(SCC(=O)Nc2ccc(C)c(Cl)c2)cc(-c2ccccc2)n1 -22.2%
CCOc1ccc(C(=O)Oc2c(Sc3ccccc3)c(C)nn2C(C)(C)C)cc1OCC -42.6%
COc1ccc(CN(Cc2ccco2)C(=O)COc2ccccc2OC)cc1 -13.6%
Nc1ncnc2c1nc(Cl)n2[C@@H]1O[C@H](CO)[C@@H](O)[C@@H]1O -29.9%
CCc1ccccc1-n1cnc2cc(C(=O)NC3CCCCCC3)ccc21 -16.5%
COc1ccccc1N1CCN(S(=O)(=O)c2ccc(F)c(C(=O)Nc3ccc(Cl)cc3C(F)(F)F)c2)CC1 -34.1%
O=C(Nc1ccccc1Cl)[C@H](CSCc1ccccc1)N1Cc2ccccc2C1=O -14.4%
O=C(c1ccc2c(c1)CCN2S(=O)(=O)c1ccccc1)N1CCN(c2ccccc2F)CC1 3.45%
CCCc1nc(C(C)(C)O)c(C(=O)O)n1Cc1ccc(-c2ccccc2-c2nn[nH]n2)cc1 -15.7%
CCOC(=O)C(CC)N1CCN(Cc2ccc(F)cc2)C(=O)C1=O (stereo not drawn) 6.19%
O=C(c1ccc(F)cc1)C1CCN(CCn2c(=O)[nH]c3ccccc3c2=O)CC1
O=C(Nc1nc2c(F)cccc2s1)c1ccc(S(=O)(=O)N2CCCc3ccccc32)cc1 -8.86%
CCn1nc(C)c2c(-c3ccccc3)cc(=O)n(C(C)C(=O)Nc3cc(C)ccc3C)c21 (stereo not drawn) -10.2%
COc1ccc(-c2ccc(NS(=O)(=O)c3cc(C)c(C)cc3C)cc2)nn1 -30.6%
CCc1ccc(NC(=O)Cn2nc(SC)c(S(=O)(=O)c3ccc(OC)cc3)c2N)cc1 -2.25%
COc1ccc(N2CCN(C(=O)C(C)n3nc(C)c4sc5ccccc5c4c3=O)CC2)cc1 (stereo not drawn) 2.35%
CCOC(=O)c1c(NC(=O)C2c3ccccc3Oc3ccccc32)sc2c1CCC(CC)C2 (stereo not drawn) -18.5%
CCc1ccc(NC(=O)Cn2c(=O)n(CCCC(=O)NCc3ccc4c(c3)OCO4)c(=O)c3ccccc32)cc1 -31.1%
CCS(=O)(=O)NCC(c1ccco1)N1CCN(c2ccc(F)cc2)CC1 (stereo not drawn) -24.6%
CC(=O)C1=C(c2cccc([N+](=O)[O-])c2)N(C(C)=O)n2c(nnc2-c2ccc(C)cc2)S1 -2.53%
CCOC(=O)c1c(S(=O)(=O)N2CCCC(C(=O)N3CCN(c4cc(C)ccc4C)CC3)C2)c(C)n(C)c1C (stereo not drawn) 15.4%
COc1ccc(-c2nnc(SCCOc3ccccc3C)o2)cc1OC -6.5%
Cc1cn(C)c(CC(=O)Nc2ccc(F)cc2Cl)c1C(=O)O -16.5%
O=S(=O)(c1ccc(Cl)cc1)c1nc(-c2cccs2)oc1SCc1ccccc1F -2.58%
Cc1cc(C)cc(OCCSc2nc3ccc(NC(=O)COc4ccccc4)cc3s2)c1 -29.3%
NC(=O)Nc1cc(-c2cccc(F)c2)sc1C(=O)N[C@H]1CCCNC1 -32.3%
Cc1ccc(OCC(=O)Nc2nonc2-c2ccc(Br)cc2)cc1C -9.08%
Cc1ccc(N2CC(NC(=O)c3cccs3)CC2=O)cc1 (stereo not drawn) -8.63%
CCCCNC(=O)c1ccc2c(c1)N=C(CC)c1ccccc1S2 -41.4%
O=C(CCCN1C(=O)c2cccnc2Oc2ccc(Cl)cc21)NCc1ccc(F)cc1 -21.1%
CN1CCN(CCNC(=O)c2cnn(-c3ccc(F)cc3)c2C2CCN(C(=O)OC(C)(C)C)CC2)CC1 -4.9%
O=C(Nc1ccccc1)Nc1nnc(SCC(=O)N2CCCCC2)s1 -15%
Cc1ccc(N2C(=O)CSC23C(=O)N(CC(=O)NCc2ccccc2)c2ccccc23)cc1 (stereo not drawn) -22.5%
CCOc1ccc(-n2cc(-c3ccccc3)c3c(NC4CCCC4)ncnc32)cc1 -18.6%
O=C(CN1C(=O)C2(SCC(=O)N2c2ccc(F)cc2)c2ccccc21)NC1CCCCC1 (stereo not drawn) -6.68%
Cc1ccc2c(c1)C(=O)OC(C(=O)Nc1ccccc1C(=O)O)C2 (stereo not drawn) 7.76%
CC1=C(c2ccc(C)c(C)c2)S(=O)(=O)N(Cc2ccc(C(=O)Nc3cc(F)ccc3F)cc2)C1=O -33.5%
Cc1nn2c(C)c(C(=O)N3CCN(c4ccc(Cl)cc4)CC3)cnc2c1-c1ccc(F)cc1 1.34%
CCN(CC)C(=O)c1ccc(O)c(OC)c1 -0.837%
O=S(=O)(c1ccc(-c2cnc(C3CC3)o2)cc1)N1CCN(c2ccccc2F)CC1 -3.47%
COc1cc2c(cc1OC)n(CC(=O)c1ccc(C)cc1C)c(=O)n1nc(CCn3nc(C)cc3C)nc21 -11.2%
O=C(NCCCN1CCN(c2cccc(Cl)c2)CC1)c1ccc2nc(Cc3ccccc3)oc2c1 -42%
Cc1cccc(Nc2sc(C(=O)c3ccc(Cl)cc3)c(N)c2C(N)=O)c1 9.31%
COc1ccc(NC(=O)c2cc(-c3ccccc3F)no2)cc1 14.3%
COc1cccc(CNC(=O)Cn2nc(C)c3sc4ccccc4c3c2=O)c1OC 10.8%
